Measured values published in PubChem BioAssay (NCI).
Where “and” joins values, the source holds several entries; their conditions need not be identical. Equal values may be shown once.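 Each compound was tested at five concentrations against cells in 96-well plates for 48 hours. GI50: concentration for 50% inhibition of growth. TGI denotes the concentration required for complete inhibition of growth.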

System: NCI-H322M lung
Assay: NCI-60 cell line screen, 48 h

SMILES | TGI [µM] | GI50
N/N=C(/Cc1nc2ccc(C(=O)c3ccccc3)cc2[nH]c1=O)C(=O)Nc1ccc([N+](=O)[O-])cc1[N+](=O)[O-] | > 100 | 
COC(=O)[C@@H]1Cc2c([nH]c3ccccc23)[C@H](c2ccccc2)N1 | > 100 | 
COc1cccc(C2SC(N)=Nc3c2c(C)nn3C(=O)Cc2ccccc2)c1 (configuration not stated) | > 100 | 
CC(C)C(OC(=O)c1ccc(NCC2=CC(=O)C=CC2=O)cc1)C(C)C | 60.7 | 
Nc1nc(/C=C\c2ccccc2)nc(N2CCN(c3ccccc3)CC2)n1 | 74.3 | 27.4 µM
C/C=C1\CN2CCc3c([nH]c4ccccc34)C2CC1CCO (configuration not stated) | > 100 | 
O=C(CSCC(=O)N/N=C\c1cccc([N+](=O)[O-])c1)N/N=C\c1cccc([N+](=O)[O-])c1 | > 100 | 
O=C1NN(Cc2ccccc2)C(=O)N2CCC[C@@H]12 | > 100 | 
CO[C@H]1CC(O[C@@H]2/C(C)=C/C[C@@H]3C[C@@H](C[C@]4(CC[C@H](C)[C@@H](C5CCCCC5)O4)O3)OC(=O)[C@@H]3C=C(C)/C(=N/O)[C@H]4OC/C(=C\C=C\[C@@H]2C)[C@]43O)O[C@@H](C)C1O (some centres not stated) | 1.64 | 0.851 µM
O=c1c(Cl)c(Cl)cnn1CCCl | 22.8 | 
C=CC1CN(C(=O)OCC)N(C(=O)OCC)C1CCc1ccccc1 (configuration not stated) | > 100 | 
CCOP(=O)(OCC)C(C(=O)OC)C(=O)C(=O)Nc1cccc(O)c1 (configuration not stated) | > 100 | 
CSCSCC(CO)NC(=O)/C(C)=C\c1c(C)[nH]c(=O)[nH]c1=O (configuration not stated) | > 250 | 
CC(=O)c1cc(C(=O)c2ccc3c(c2)Sc2ccccc2N3)n2ccccc12 | > 33.2 | 0.00593 µM and 0.00359 µM
O=C1C2C3CC(C4C5C=CC(C5)C34)C2C2C3CC(C12)C1C2C=CC(C2)C31 (configuration not stated) | > 100 | 
C=CCC(N[C@@H](CO)c1ccccc1)c1cn(C(=O)OCC)c2ccccc12 (some centres not stated) | > 100 | 20.4 µM
Cn1cc2ccccc2c1-c1nc(F)nc(Oc2ccc3c(c2)CC[C@@H]2C3CC[C@@]3(C)C2C[C@H](O)[C@@H]3O)n1 (some centres not stated) | 46.3 | 
O=C(c1ccccc1)N1CCC(CC2(c3cc4ccccc4[nH]3)OCCO2)CC1 | > 100 | 
CC(=O)[CH-]C(=O)c1ccccc1.CC(=O)[CH-]C(=O)c1ccccc1.O=S(=O)([O-])c1cc([O-])c2c([O-])cc(S(=O)(=O)[O-])cc2c1.[Na+].[Zr+4] | > 100 | > 100 µM

SMILES | TGI [µM] | GI50
COC1OC2COC(C)(C)OC2C(OC(C)=O)C1NC(=O)N(CCCl)N=O (configuration not stated) | > 100 | 
O=Cc1cc(C(=O)OCc2ccccc2)n(S(=O)(=O)c2ccccc2)c1 | > 100 | 
c1ccc(CNCCN(CCNCc2ccccn2)Cc2ccc3ccccc3c2)nc1 | 4.04 | 1.48 µM
CC(C)COc1nc2c(c(=O)n(C)c(=O)n2C)n1C | > 100 | 17.2 µM
CCc1nc2ccc(N=Nc3c(O)ccc4ccccc34)cc2[nH]1 | > 52.5 | 
NC1CCC(N(CC(=O)O)CC(=O)O)C(N(CC(=O)O)CC(=O)O)C1 (configuration not stated) | > 100 | 
COc1cc(C2c3cc4c(cc3C(OC(=O)C[n+]3ccccc3)C3COC(=O)C23)OCO4)cc(OC)c1OC (configuration not stated) | > 100 | < 0.024 µM
S=c1ncc2c([nH]1)C1c3ccccc3C2c2ccccc21 | > 100 | 
Nc1nc(NCCCO)cc(=O)[nH]1 | > 100 | 
Cc1cc(C)c(-c2c(N)cc(Br)cc2Br)c(N)c1 | 28.3 | 11.7 µM
CCNC(=O)Oc1ccc(/C(=C(/C)Cc2ccc(OC)cc2)c2ccc(OCCN(CC)CC)cc2)cc1 | 10.8 | 2.58 µM
Nc1ccccc1C(=O)CCC1C(=O)NC(=S)NC1=O | > 100 | 
CC1=CC[C@@]2(C)CC[C@](O)(C(C)C)C2C(OC(=O)c2ccccc2)C1 (some centres not stated) | 38.2 | 
CCCSc1ccc2[nH]c(N3C(=O)/C(=C/c4ccc(SC)cc4)N=C3c3ccccc3)cc2c1 | > 50 | 
COc1ccccc1/C=C/C1=NN(c2cccc(S(=O)(=O)O)c2)C2(C1)C(Cl)C(=O)N2c1nc2ccccc2s1 (configuration not stated) | > 100 | 
CN(/N=C/c1ccnc2ccccc12)c1c([N+](=O)[O-])cc([N+](=O)[O-])cc1[N+](=O)[O-] | > 100 | 
CCOC(=O)CC(NC(=O)c1[nH]cnc1/N=N/N(C)C)C(=O)OCC (configuration not stated) | > 100 | 
CC1CCC2CC(=O)OC([C@@H]3C(=O)O[C@@H](C4=CCCC4)C4C(C)CCC43)C12 (some centres not stated) | > 100 | 
